The values below come from ChEMBL document CHEMBL4888484, “Replenishing the malaria drug discovery pipeline: Screening and hit evaluation of the MMV Hit Generation Library 1 (HGL1) against asexual blood stage Plasmodium falciparum ,using a nano luciferase reporter read-out” (2022).

The campaign covered roughly 150,000 compounds. About 540 (0.36%) showed an effect of 50% or more. This is one part of the list.

For the test, the system named is Plasmodium falciparum. As to the kind of experiment: Primary screen in NF54 nanoGlo assay, in single point, at 2uM, 72h; a lower Z score goes with more inhibition. The conditions noted are these: timepoint 72 hour. Format: functional, Erythrocyte.
Regarding `CC(C)NC(=O)NC1CC(C(F)(F)F)C1` (configuration not stated), the “% Inhibition” value was determined as 3% and the Z score is given as -0.27.
For the compound `Cc1cccc(CNC(=O)c2ccc(-n3cnc4cccnc43)cc2)c1`, the “% Inhibition” value is -6% and the Z score is recorded as 0.94.
Turning to `C#CC12C(=O)N(C)C3C(CCO)C1C=CCC32` (configuration not stated), the “% Inhibition” value was -8% and the Z score turned out to be 1.49.
Turning to `COCCN1C[C@@H](C(=O)N2CCN(c3nccs3)CC2)CC1=O`, the “% Inhibition” value is recorded as -2% and the Z score is recorded as 0.25.
For `CCCn1cnnc1CN(C)CCCc1ccco1`, in that order: -12% and 1.75.
For the compound `O=S1(=O)CCCN1Cc1cccc(-c2cnc3cncn3c2)c1`, the “% Inhibition” value is reported as -9% and the Z score amounted to 1.21.
With `CCCNC(=O)[C@@H]1COC2(CCN(C(=O)c3ccc(OC)cc3)CC2)N1C(=O)c1ccccc1`, the “% Inhibition” value is -11% and the Z score was 1.65.
Regarding `CC(C)(C)OC(=O)N1CCC[C@@H]1CNC1CC1`, the “% Inhibition” value is listed as -7% and the Z score was 0.86.
Consider `O=C(NCc1ccc2c(c1)OCO2)c1nc[nH]c1C(=O)NCc1ccccn1`, for which the “% Inhibition” value was 6% and the Z score is reported as -0.77.
Consider `Cc1nc(CN2C(=O)[C@@H]3CCCCN3C2=O)cs1`, for which the “% Inhibition” value was -4% and the Z score was 0.48.
In the case of `COCCC1(NC(=O)c2ccc(OC)cc2)CCN(CC2CC2)CC1`, the “% Inhibition” value is recorded as -7% and the Z score worked out at 0.82.
As to `Cc1cccc(CCNCc2cnc3cccc(C)n23)n1`, the “% Inhibition” value was -6% and the Z score came to 1.09.
For `CCc1ocnc1C(=O)NC1CCCCCC1C(=O)OC` (configuration not stated), in that order: -7% and 0.61.
`CCCCCOCC(=O)N1CCN(c2nc(C)n[nH]2)CC1`: the “% Inhibition” value was determined as 6% and the Z score is listed as -0.8.
As for `O=C(NC1CC(C(F)(F)F)CC(C(F)(F)F)C1)c1cccn2c(=O)[nH]nc12` (configuration not stated), the “% Inhibition” value is -8% and the Z score is recorded as 1.34.
For `c1ccc(-c2cc([C@@H]3NCCc4[nH]cnc43)on2)cc1`, in that order: -4% and 0.56.
The corresponding values for `COc1ccc(C(=O)N(Cc2c(-c3cccc(C)c3)noc2N2CCOCC2)C(C)C)cc1` are 3% and -0.29.
For `CCOc1ccc(NC(=O)CCn2c(=O)cc(C(F)(F)F)c3cn(C)nc32)cc1`, in that order: 31% and -3.55.
Regarding `O=C(Nc1ccc(C2(c3ccc(NC(=O)c4ccc(F)cc4)cc3)c3ccccc3C(=O)c3ccccc32)cc1)c1ccc(F)cc1`, the “% Inhibition” value was found to be 77% and the Z score is on record as -2.85.
For the compound `O=C(O)[C@@H]1CCCN1C(=O)CCCc1ccc(F)c(F)c1`, the “% Inhibition” value is given as 0% and the Z score is recorded as -0.02.
For `CN(CC(=O)Nc1nc(-c2ccc(F)c(Cl)c2)cs1)C(=O)OC(C)(C)C`, the “% Inhibition” value is given as -17% and the Z score is recorded as 1.61.
Take `COc1ccccc1C1CN(C(=O)C(C)C)CC1C(=O)NCc1ccc(F)cc1` (configuration not stated): the “% Inhibition” value is given as -9% and the Z score stood at 1.28.
The corresponding values for `Cc1c(NC(=O)c2ccc([C@H](C)N3CCCCC3)o2)cccc1-c1nncn1C` are 11% and -1.58.
Turning to `Cc1ccc(CN(C)Cc2ccc(C)s2)s1`, the “% Inhibition” value worked out at 30% and the Z score is -3.35.
Regarding `CC(NC(=O)N1CC2CCC1C2)c1ccc(-c2cccnc2)cc1` (configuration not stated), the “% Inhibition” value is on record as -15% and the Z score stood at 2.1.
Regarding `Cc1nc(CN2C[C@@H](C)N(Cc3csc(C)n3)[C@@H](C)C2)cs1`, the “% Inhibition” value was -8% and the Z score was 0.91.
On to `CC(C)C(=O)Nc1cc(C2CC2)nn1[C@H]1CCS(=O)(=O)C1`, for which the “% Inhibition” value is given as -10% and the Z score was found to be 1.41.
The corresponding values for `O=C(c1cnc[nH]1)N1CCN(Cc2ccoc2)C[C@H](O)C1` are -8% and 1.05.
For `CN(C)CCN(CC(=O)O)Cc1ccc2ccn(C)c2c1`, the “% Inhibition” value was -18% and the Z score stood at 1.61.
Turning to `COCCOCC(=O)Nc1cc2sc(C)nc2cc1Cl`, the “% Inhibition” value was determined as 2% and the Z score is on record as -0.21.
Turning to `Cc1ccc(Cn2c(C(=O)NC3CC4CCC3C4)cc3ccsc32)cc1` (configuration not stated), the “% Inhibition” value is recorded as 7% and the Z score is -0.78.
For the compound `CS(=O)(=O)N1C[C@H]2CC[C@@H](C1)N(C(=O)COc1ccc3c(c1)OCO3)C2`, the “% Inhibition” value is reported as -3% and the Z score stood at 0.37.
Take `COC[C@H]1[C@H](Nc2ncc(Cl)cn2)[C@H]2CCO[C@H]21`: the “% Inhibition” value is -13% and the Z score is 2.11.
Take `COc1cccc(C2=NN(C(=O)CN(CCN3CCOCC3)C(=O)C(C)C)[C@H](c3ccccc3)C2)c1`: the “% Inhibition” value is recorded as -5% and the Z score is given as 0.41.
`CCOC(=O)N1CCC(NC(=O)c2nnn(-c3nc(-c4ccccc4)cs3)c2C)CC1`: the “% Inhibition” value is on record as -29% and the Z score is 5.59.
Take `CC(C)(C)OC(=O)N1CCN(c2nnc(NC(=O)CC3CCCC3)[nH]2)CC1`: the “% Inhibition” value turned out to be 0% and the Z score is listed as 0.02.
As to `CC1(C)CCc2c(nc3ccccc3c2O)O1`, the “% Inhibition” value is 0% and the Z score stood at 0.05.
`CC[C@H]1C(=O)NCCCN1C(=O)Cn1cc(C2CC2)cn1`: the “% Inhibition” value turned out to be 5% and the Z score is -0.99.
As for `CC(=O)N[C@H]1CN(Cc2ccc(F)cc2Cl)C[C@@H]1c1ccc(C)cc1`, the “% Inhibition” value is -6% and the Z score is 1.2.
Turning to `Cn1nc(CNC(=O)[C@H]2CCc3nnnn3CC2)cc1C(F)(F)F`, the “% Inhibition” value is on record as 10% and the Z score is recorded as -1.38.
Regarding `COC(=O)N1CCC[C@@]2(CCC(=O)N(CCc3ccccc3)C2)C1`, the “% Inhibition” value is -7% and the Z score amounted to 1.5.
